The record followed here is patent US20220380436A1 (BOARD OF TRUSTEES OF THE UNIVERSITY OF ILLINOIS, published 2022).

The target of the test is T1, membrane-tethered HCMV trimer (full-length gH, gL-FLAG, gO-8his) of strain Merlin on Expi293F cells (human cytomegalovirus strain Merlin, UniProt Q6SW67 24-742; F5HCH8 31-278; F5HGP1 32-472).
T1 construct: also called membrane-localized HCMV trimer; trimer from Merlin; not shown: C-terminal FLAG tag
T1 sequence 1: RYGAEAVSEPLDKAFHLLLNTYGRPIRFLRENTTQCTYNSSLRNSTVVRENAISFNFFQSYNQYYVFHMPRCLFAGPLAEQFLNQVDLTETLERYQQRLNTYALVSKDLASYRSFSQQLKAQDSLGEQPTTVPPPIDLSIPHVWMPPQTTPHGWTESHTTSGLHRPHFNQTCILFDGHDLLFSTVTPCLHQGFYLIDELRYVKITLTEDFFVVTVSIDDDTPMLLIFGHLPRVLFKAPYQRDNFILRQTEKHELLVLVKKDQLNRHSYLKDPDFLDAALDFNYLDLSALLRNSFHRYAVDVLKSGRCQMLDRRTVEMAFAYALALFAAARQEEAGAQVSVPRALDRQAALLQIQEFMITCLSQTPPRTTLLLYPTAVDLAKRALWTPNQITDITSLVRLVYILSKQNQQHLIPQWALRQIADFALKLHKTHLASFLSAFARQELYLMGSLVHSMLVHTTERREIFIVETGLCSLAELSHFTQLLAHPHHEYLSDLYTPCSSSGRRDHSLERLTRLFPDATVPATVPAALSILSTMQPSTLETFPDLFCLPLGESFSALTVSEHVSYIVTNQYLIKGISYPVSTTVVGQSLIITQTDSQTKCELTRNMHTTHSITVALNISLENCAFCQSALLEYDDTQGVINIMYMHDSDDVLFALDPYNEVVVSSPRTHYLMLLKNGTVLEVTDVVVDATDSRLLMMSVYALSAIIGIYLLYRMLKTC
T1 sequence 2: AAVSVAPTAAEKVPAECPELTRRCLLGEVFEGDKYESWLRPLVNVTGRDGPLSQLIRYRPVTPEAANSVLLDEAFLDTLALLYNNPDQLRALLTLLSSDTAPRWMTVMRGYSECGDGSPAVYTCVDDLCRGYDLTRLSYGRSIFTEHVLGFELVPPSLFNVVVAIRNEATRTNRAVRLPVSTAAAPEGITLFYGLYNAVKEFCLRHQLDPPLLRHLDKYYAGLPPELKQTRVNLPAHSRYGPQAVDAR
T1 sequence 3: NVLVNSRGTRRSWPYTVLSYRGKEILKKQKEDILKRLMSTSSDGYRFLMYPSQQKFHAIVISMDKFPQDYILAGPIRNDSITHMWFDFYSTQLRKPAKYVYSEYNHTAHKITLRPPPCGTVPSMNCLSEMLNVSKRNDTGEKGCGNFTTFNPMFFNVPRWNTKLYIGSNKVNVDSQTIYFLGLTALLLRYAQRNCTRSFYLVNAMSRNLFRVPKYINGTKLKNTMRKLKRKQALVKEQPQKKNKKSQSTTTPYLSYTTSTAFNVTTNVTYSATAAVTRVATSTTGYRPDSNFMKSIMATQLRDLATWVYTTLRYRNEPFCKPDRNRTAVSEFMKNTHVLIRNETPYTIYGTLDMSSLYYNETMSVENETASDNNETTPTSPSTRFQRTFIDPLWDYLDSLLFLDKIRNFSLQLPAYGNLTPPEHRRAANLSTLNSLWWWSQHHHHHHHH
Nature of the test: flow cytometry, sPDGFRα-Fc on Expi293F cells expressing the trimer.

Changes are numbered by the printed parent chain. Numbers in names are those of the source.

B1: wild-type soluble PDGFRα-Fc (redesigned fusion to human IgG1 Fc) (Fc fusion)
chain: QLSLPSILPNENEKVVQLNSSFSLRCFGESEVSWQYPMSEEESSDVEIRNEENNSGLFVTVLEVSSASAAHTGLYTCYYNHTQTEENELEGRHIYIYVPDPDVAFVPLGMTDYLVIVEDDDSAIIPCRTTDPETPVTLHNSEGVVPASYDSRQGFNGTFTVGPYICEATVKGKKFQTIPFNVYALKATSELDLEMEALKTVYKSGETIVVTCAVFNNEVVDLQWTYPGEVKGKGITMLEEIKVPSIKLVYTLTVPEATVKDSGDYECAARQATREVKEMKKVTISVHEKGFIEIKPTFSQLEAVNLHEVKHFVVEVRAYPPPRISWLKNNLTLIENLTEITTDVEKIQEIRYRSKLKLIRAKEEDSGHYTIVAQNEDAVKSYTFELLTQVPSSILDLVDDHHGSTGGQTVRCTAEGTPLPDIEWMICKDIKKCNNETSWTILANNVSNIITEIHSRDRSTVEGRVTFAKVEETIAVRCLAKNLLGAENRELKLVAPTLRSEGGGS[human IgG1 Fc left out here]
notes: also called sPDGFRα-Fc; sPDGFRα-Fc WT
In the case of B1, the binding result is recorded as “binds”.

B2: sPDGFRα-Fc V242K (redesigned IgG1 Fc fusion) (Fc fusion)
chain: B1 chain with V219K
notes: also called Soluble PDGFRα-Fc V242K; orthogonal sPDGFRα-Fc V242K
On to B2, for which the binding result is “binds”.

B3: sPDGFRα-Fc Y206S (redesigned IgG1 Fc fusion) (Fc fusion)
chain: B1 chain with Y183S
notes: also called Soluble PDGFRα-Fc Y206S; the Y206S mutant
As for B3, the binding result is listed as “binds”.

B4: legacy sPDGFRα-Fc (PDGFRα ectodomain, IEGRMD linker, human IgG1 upper hinge and Fc) (Fc fusion)
chain: QLSLPSILPNENEKVVQLNSSFSLRCFGESEVSWQYPMSEEESSDVEIRNEENNSGLFVTVLEVSSASAAHTGLYTCYYNHTQTEENELEGRHIYIYVPDPDVAFVPLGMTDYLVIVEDDDSAIIPCRTTDPETPVTLHNSEGVVPASYDSRQGFNGTFTVGPYICEATVKGKKFQTIPFNVYALKATSELDLEMEALKTVYKSGETIVVTCAVFNNEVVDLQWTYPGEVKGKGITMLEEIKVPSIKLVYTLTVPEATVKDSGDYECAARQATREVKEMKKVTISVHEKGFIEIKPTFSQLEAVNLHEVKHFVVEVRAYPPPRISWLKNNLTLIENLTEITTDVEKIQEIRYRSKLKLIRAKEEDSGHYTIVAQNEDAVKSYTFELLTQVPSSILDLVDDHHGSTGGQTVRCTAEGTPLPDIEWMICKDIKKCNNETSWTILANNVSNIITEIHSRDRSTVEGRVTFAKVEETIAVRCLAKNLLGAENRELKLVAPTLRSEIEGRMD[human IgG1 Fc left out here]
B4: the binding result was “binds”.
